Data as given in PubChem BioAssay AID493208 (National Center for Advancing Translational Sciences (NCATS), 2011).
Screen size: about 44,000 compounds; about 340 (0.77%) were called active. Roughly 5% stayed inconclusive and do not appear here. Calls come from the whole dose curve; as a rule, active = well fitted inhibition curve with a large enough effect; inconclusive = small, poorly fitted or top-dose-only effect; inactive = flat fitted curve, though single readings scatter. The list shows a part of the results.

assay: Acumen qHTS Assay for Inhibitors of the mTORC1 Signaling Pathway in MEF (Tsc2-/-, p53-/-) Cells: Sytravon; conditions: phospho-rpS6 immunofluorescence/PI, 24 h; series mostly up to 38.3 µM; activity change, negative = inhibition: at the top concentration;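 note: plate controls were DMSO for no effect and rapamycin for full effect; nearly all actives have a fitted effect of over 50% in size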
Summary of the method: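 Tsc2-/-, p53-/- MEFs (empty-vector stable line) in DMEM + 10% FBS were treated with compounds 24 h at 37 degree Celsius, fixed, and immunostained for phospho-rpS6 (Alexa-488) with propidium iodide counterstain. Laser-scanning cytometry gave % positive cells, normalized against 7.5 nM rapamycin and DMSO.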

Activity change, negative = inhibition, inactive:
O=C1CC(c2ccccc2)Sc2ccccc2N1Cc1ccc(F)cc1 (stereo not drawn) 1.49%
COc1ccccc1CNC(=O)c1c[nH]c2ccc(S(=O)(=O)Nc3cc(C)cc(C)c3)cc2c1=O -1.16%
CCCOc1ccc(CNC(=O)CCCn2ncn3c(cc4sc(CC)cc43)c2=O)cc1 -2.34%
Cc1ccc(-c2cc(C(=O)Nc3ccc(SC(F)F)cc3)no2)cc1F -2.98%
COc1cccc(NC(=O)CCC(=O)N2Cc3ccccc3Oc3ncccc32)c1 -1.83%
CCCOc1ccc(NC(=O)CC2C(=O)N(c3ccccc3)C(=O)N2Cc2ccco2)cc1 (stereo not drawn) -7.77%
Cc1ccc(CNC(=O)CSc2nc3ccsc3c(=O)n2Cc2ccccc2F)cc1 0.0296%
Cc1cccc(Nc2nnc(-c3ccc(C)c(S(=O)(=O)N4CCCCC4)c3)c3ccccc23)c1 5.84%
Cc1ccc(-n2cc(-c3ccccc3)c3c(N4CCCCC4)ncnc32)cc1 -0.0601%
CC(C)OC(=O)c1cccc(NC(=O)Cn2nnc3sc4c(c3c2=O)CCCC4)c1 -4.36%
Cc1ccc(S(=O)(=O)N2CCN(C(=O)c3cc(-c4ccc(Br)cc4)n[nH]3)CC2)c(C)c1 -4.47%
CCN(CC)c1ccc(NC(=O)c2cccn2-c2nnc(N3CCCCC3)s2)c(C)c1 10.9%
Cc1c(Cl)cccc1-n1ncc(C(=O)N2CCN(c3ncccn3)CC2)c1C1CCN(C(=O)OC(C)(C)C)CC1 5.33%
Cc1ccc(NC(=O)C(Cc2ccccc2)NS(=O)(=O)c2ccc3c(c2)c(=O)n(C)c(=O)n3C)c(C)c1 (stereo not drawn) -1.4%
CCOc1ccccc1Nc1nc2ccccc2c2nncn12 -0.815%
COc1cccc2c1cc1c(=O)n(CC(=O)N3CCN(c4cccc(C)c4C)CC3)nc(C)n12 0.237%
CC(=O)c1c(C)oc2ccc(N(C(=O)Oc3ccccc3)S(=O)(=O)c3ccc(Cl)cc3)cc12 -6.79%
Cc1ccc(CNC(=O)C2CCN(S(=O)(=O)N3CCCCC3)CC2)cc1 5.78%
Cc1ccc(Cn2nnc3c(=O)[nH]c(C4CCN(C(=O)Cc5ccccc5F)CC4)nc32)cc1 -4.92%
COc1ccc(CCNC(=O)CCc2c(C)nc3c4c(C)cc(C)nc4nn3c2C)cc1OC -0.766%
CCOc1ccc(CNC(=O)c2ccc3oc(=O)n(Cc4ccccc4)c3c2)cc1 0%
CCc1cccc(NS(=O)(=O)c2c(C)[nH]c(=O)[nH]c2=O)c1 1.48%
CC1CCN(S(=O)(=O)c2ccc3c(c2)CCN3C(=O)Nc2ccccc2Br)CC1 -3.59%
COc1ccc2c(c1)cc(CNc1ccc(OC)c(OC)c1)c(=O)n2CC(=O)Nc1ccccc1C -14.8%
Fc1ccc(N2CCN(c3nc4ccccc4c4nc(-c5ccccc5)nn34)CC2)cc1 2.73%
COc1ccc(OCC(=O)Nc2ccc(-c3nc4cc(C)cc(C)c4o3)cc2)cc1 -8.03%
COc1ccc(CC(=O)Nc2nc3c(s2)CC(C)CC3)cc1 (stereo not drawn) -8.31%
Cc1ccc(NC(=O)C2CCCN(S(=O)(=O)c3ccc4[nH]c(=O)ccc4c3)C2)cc1Cl (stereo not drawn) -0.834%
COc1ccc2c(c1)c1c(c(=O)n(CCc3ccccc3)c(=O)n1Cc1cccc(Cl)c1)n2C -4.65%
O=C(NCc1cccc(Cl)c1)c1c2c(nc3ccccc13)C(=O)N(C1CCCCC1)C2 0.239%
CC(=O)Nc1cccc(NC(=O)c2cc3c(=O)n4cccc(C)c4nc3n2C)c1 -8.54%
CCOc1ccccc1Nc1ncnc2c1cnn2-c1ccc(C)cc1 5.73%
CCCn1cc(S(=O)(=O)c2ccc(C)cc2)c(=O)c2cc(F)c(N3CCCC3)cc21 0.353%
COc1cc(NC(=O)c2ccc(C)c(Cl)c2)ccc1NC(=O)c1cc2ccccc2o1 2.08%
CC1CN(C(=O)N2CCC(C(=O)NCCCc3ccccc3)CC2)c2cc(Cl)ccc2O1 (stereo not drawn) 3.76%
CCCCOc1ccc(CNC(=O)c2cccc(NC(=O)N3CCSc4ncccc43)c2)cc1 -2.36%
Cc1c(C(=O)NCc2ccc(Cl)cc2)oc2ccc3c(c12)C(=O)CC(C)(C)O3 -0.762%
Cc1ccc(CNC(=O)CSc2ncc3c(n2)-c2cc(Cl)ccc2N(C)S3(=O)=O)cc1 5.22%
O=C(CCc1nc(CN2CCN(S(=O)(=O)c3ccc(Br)cc3)CC2)no1)N1CCCCC1 -3.22%
CCOc1ccccc1C1CC(=O)Nc2c1c(=O)n(C)c1ncnn21 (stereo not drawn) -12.4%
CCc1nn(CC(=O)NC2CC2)c(=O)c2cc3c(OC)cccc3n12 -4.31%
CCCCNC(=O)C1CCCN(S(=O)(=O)CCC)C1 (stereo not drawn) 7.15%
COc1cc(NC(=O)Cn2c(=O)n(CC3CCC(C(=O)NCCc4ccccc4)CC3)c(=O)c3ccccc32)cc(OC)c1 (stereo not drawn) 1.84%
COc1cc2cc(CNc3ccccc3)c(=O)n(CC(=O)Nc3cccc(Cl)c3C)c2cc1OC -2.94%
COc1cccc(Cn2cc(C(=O)c3ccccc3)c(=O)c3cc4c(cc32)OCO4)c1 -1%
Cc1ccc(NCc2cccn2-c2nnc(N3CCC(C(=O)NCCc4ccc(Cl)cc4)CC3)s2)cc1 -0.498%
CCc1ccc(C(=O)c2cn(CC(=O)Nc3ccc4c(c3)OCCO4)c3ccc(F)cc3c2=O)cc1 -9.99%
COc1ccc(-n2c(C)nc3c(cnn3-c3ccc(F)cc3)c2=O)cc1 -9.3%
CCCCN(CC)CCCNC(=O)c1c(C)oc2ncnc(N3CCOCC3)c12 -2.15%
CCc1nn2c(=O)cc(COC(=O)c3cccc(NC(=O)CCc4ccccc4)c3)nc2s1 0.748%
CCn1cc(/C=C(\NC(=O)c2ccc(OC)cc2)C(=O)NCCCn2ccnc2)c2ccccc21 3.03%
COc1ccccc1CNC(=O)C1CCN(c2nc3ccc(Cl)cc3[nH]2)CC1 10.7%
COc1cc2c(=O)n(CCC(=O)NCC3CCCO3)c(=O)n(CC(=O)Nc3ccccc3C)c2cc1OC (stereo not drawn) -1.83%
CCc1nn(CC(=O)NCCc2ccc(OC)cc2OC)c(=O)c2cc3occc3n12 -4.15%
CCCCc1ccc(-n2nc3cc(C)c(NC(=O)c4ccc(C#N)cc4F)cc3n2)cc1 1.4%
O=C(NCCn1cc(SCc2ccc(C(F)(F)F)cc2)c2ccccc21)c1cccs1 -16.5%
Cc1nnc(SCC(=O)NCc2cccc(F)c2)c2nn(-c3ccccc3)c(C)c12 -2.5%
Cc1cccc(NC(=O)CSc2nc(=O)n(CCN3CCOCC3)c3c2CCC3)c1 -0.221%
Cc1ccc(-n2ncc(C(=O)NCCN3CCc4ccccc4C3)c2C2CCN(C(=O)OC(C)(C)C)CC2)c(C)c1 -6.19%
O=C(CN1C(=O)COc2ccc(S(=O)(=O)NC3CCCC3)cc21)Nc1ccc(F)c(Cl)c1 -7.22%
Cc1ccc2nc(-c3ccc(N4CCOCC4)cc3)c(Nc3ccccc3C)n2c1 -2.29%
COc1cccc(NC(=O)CN2C(=O)COc3ccc(S(=O)(=O)N4CCOCC4)cc32)c1 3.81%
CN(c1nnc(NC(=O)Nc2ccc(Br)cc2)s1)C1CCCCC1 -0.713%
COc1ccccc1CNc1ncnc2onc(-c3ccc(Cl)cc3)c12 -1.09%
Cc1ccc(NC(=O)Nc2csc3c2CCCC3)c(C)c1 -2.38%
Cc1cc(C(=O)Nc2ccc(Cl)cc2)c2c(C)nn(-c3ccccc3)c2n1 -5.48%
CCCS(=O)(=O)NCCc1sc2nc(-c3ccc(Cl)cc3)nn2c1C 0.568%
NC(=O)C1CCN(C(=O)c2ccccc2NC(=O)c2nsc3ccccc23)CC1 -0.298%
CCOC(=O)c1c(NC(=O)c2cc(=O)c3c(C)cc(C)cc3o2)sc(C)c1C 0.524%
COc1ccccc1Nc1nn2c(=O)c3ccc(C(=O)NC4CCCCC4)cc3nc2s1 0.888%
CCOc1ccc(N(CC(=O)NCc2ccc(C)cc2)S(=O)(=O)c2c(C)[nH]c(=O)[nH]c2=O)cc1 -7.19%
Brc1ccc(-c2csc(-c3nc(-c4ccc(Br)s4)cs3)n2)cc1 5.26%
CCOC(=O)N1CCc2c(sc(NCc3ccc(N(C)C)cc3)c2C(=O)Nc2ccccc2OCC)C1 -26.6%
CCc1ccc(NC(=O)c2sc3nc(-c4ccccc4)cn3c2C)cc1 -2.45%
CCN1CCN(C(c2cccc(OC)c2)c2c(O)cc(C)n(Cc3ccco3)c2=O)CC1 (stereo not drawn) -26.8%
CCN(CC)CCNC(=O)Cn1cnc2sc(C)c(S(=O)(=O)N3CCN(c4ccccc4OC)CC3)c2c1=O 4.69%
CCOc1ccc(NC(=O)CSc2oc(-c3ccco3)nc2S(=O)(=O)c2ccc(Cl)cc2)cc1 -15.8%
O=C(Nc1ccccc1C(F)(F)F)N1Cc2ccccc2Oc2ncccc21 0%
CC(NC(=O)c1ccc(Cn2c(SCc3ccccc3)nc3cccnc32)cc1)c1ccccc1 (stereo not drawn) -25.2%
CC(CCc1ccccc1)NC(=O)Cn1ncc2c3ccccc3n(Cc3cccc(Cl)c3)c2c1=O (stereo not drawn) -0.225%
COc1ccc(CN(C(=O)c2ccc(OCC(C)C)cc2)C2CCS(=O)(=O)C2)cc1 (stereo not drawn) -0.567%
Cc1cccc(C(=O)NCc2nnc(SCC(=O)Nc3ccccc3F)n2-c2ccccc2)c1 -0.457%
CCc1cccc(-n2nnc(-c3nc(-c4ccc5c(c4)OCO5)no3)c2C)c1 0.542%
COc1ccc(NC(=O)CSc2nc(-c3ccccc3)c3ccccc3n2)cc1 -5.45%
CCOC(=O)c1cc(-c2ccc(OC)cc2)n(CCC(=O)NC2CCC(C)CC2)c1C (stereo not drawn) -11.3%
COc1ccc(N2CCN(C(=O)Nc3ccc(Cl)cc3)CC2)cc1 6.74%
COc1ccc(S(=O)(=O)N2CCN(C(=O)c3cc(-c4ccc(Br)cc4)n[nH]3)CC2)cc1OC -10.1%
CCOc1ccc(NCc2cccn2-c2nnc(N3CCC(C(=O)NCCc4ccc(OCC)c(OCC)c4)CC3)s2)cc1 -1.3%
COCCn1c(C)cc(O)c(C(c2ccc(OC)cc2)N2CCCCC2)c1=O (stereo not drawn) 0%
CC1CN(C(=O)Nc2ccc(C(=O)NCCc3ccc(Cl)cc3)cc2)c2ccccc2S1 (stereo not drawn) -0.016%
Cc1ccccc1NC(=O)CSCn1nnc2c(=O)[nH]c(Cc3ccc(F)cc3)nc21 0.382%
CCCC(=O)Nc1ccc2nc(SCCOc3ccccc3)sc2c1 -10.7%
CCCN1Cc2cccc(C(=O)Nc3ccccc3F)c2C1=O -0.334%
